{"source": "PubChem BioAssay (NCATS)", "note": "The shares of active, inactive and inconclusive entries below differ from those in the screen. Entries that show only a call come without a potency. A potency beside an inconclusive call is a rough fit, not a confirmed value. Calls of active or inactive are those of the source. The call rests on the fitted dose curve; in most records, active means well fitted cell-killing curve with a large enough effect; inconclusive means small, poorly fitted or top-dose-only effect, or effect the other way; inactive means no such curve, though single readings can be large or run the other way. Potency means the concentration at half of the fitted maximal effect; tags describe the fitted curve by direction and shape."}
{"experiment": "Viability qHTS for spleen associated tyrosine kinase inhibitor (SYKi) naive MV4-11 cells (AID 1963823); further: nearly all actives have a fitted effect of over 40% in size", "conditions": "MV4-11 AML viability, CellTiter-Glo luminescence, 72 h; series mostly up to 45 µM", "how_it_was_run": "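SYKi-naive MV4-11 AML cells, 500 per well, were exposed to library compounds for 72 hr at 37 C, 5% CO2. Viability was then read by CellTiter-Glo luminescence after 10 min at room temperature.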"}
{"smiles": "CC1(O)CC(O)C2(O)C=COC(O[C@@H]3O[C@H](CO)[C@@H](O)[C@H](O)[C@H]3O)C12", "note": "(stereo partly specified)", "Potency": "inactive"}
{"smiles": "O=C1NC(=Nc2ccccc2F)S/C1=C\\c1ccc(C(=O)O)cc1", "Potency": "inactive"}
{"smiles": "COc1cc(C2CC(=O)Nc3c2cc(Br)c2ccccc32)cc(OC)c1OC", "note": "(stereo unspecified)", "Potency": "inactive"}
{"smiles": "O=C(Nc1cccc(C(F)(F)F)c1)Nc1ccc(Br)cc1-c1nn[nH]n1", "Potency": "inactive"}
{"smiles": "COc1cc(/C=C/CO)cc(OC)c1O[C@@H]1O[C@H](CO[C@@H]2O[C@H](CO)[C@@H](O)[C@H](O)[C@H]2O)[C@@H](O)[C@H](O)[C@H]1O", "Potency": "inactive"}
{"smiles": "CC(=O)O[C@@H]1[C@@H](CO)O[C@@](CO)(O[C@H]2O[C@H](COC(=O)/C=C/c3ccccc3)[C@@H](O)[C@H](O)[C@H]2O)[C@H]1O", "Potency": "inactive"}
{"smiles": "O=C1Nc2ccccc2C(O)(c2ccccc2)C1O", "note": "(stereo unspecified)", "Potency": "inconclusive: 32.6 µM [cytotoxic, partial curve, poor fit]"}
{"smiles": "CC1(C)CC[C@]2(C(=O)O[C@@H]3O[C@H](CO)[C@@H](O)[C@H](O)[C@H]3O)CC[C@]3(C)C(=CCC4[C@@]5(C)C[C@@H](O)[C@H](O)[C@@](C)(CO)C5[C@H](O)C[C@]43C)C2[C@@H]1O", "note": "(stereo partly specified)", "Potency": "inactive"}
{"smiles": "N#Cc1c(N)nc(N)nc1N[C@H](c1nc2c(F)ccc(Cl)c2c(=O)n1-c1cccnc1)C1CC1", "Potency": "inconclusive: 14.8 µM [cytotoxic, partial curve]"}
{"smiles": "Fc1cccc(-n2cnc3c(NCc4nc5c(F)c(F)ccc5[nH]4)nc(N4CCOCC4)nc32)c1", "Potency": "active: 0.059 µM"}
{"smiles": "C=CC(=O)N1CCCC(n2nc(-c3ccc(Oc4ccccc4)cc3)c3c(N)ncnc32)C1", "note": "(stereo unspecified)", "Potency": "active: 0.58 µM"}
